The supplement of paper PMC11417369
± gives the standard deviation of the averaged measurements. Some of the results follow.

Each sequence was assayed on PfAP2-LT AP2 domain (GST-tagged) (assay: gcPBM binding intensity (ln(normalized median fluorescence intensity)); higher = stronger DNA binding).
How it was run: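 Binding of GST-tagged P. falciparum DNA-binding domains, expressed in E. coli and used at about 25 μg on average, was carried out for 1 h in 1× PBS containing 1% milk, 0.2 mg/ml BSA, 0.5% salmon testes DNA and 0.03% Triton X-100. The target was an Agilent 4 × 180k array of primer-extended double-stranded 36-bp intergenic genomic probes plus negative controls, read with Alexa488 anti-GST antibody at 488 nm. Binding intensity is the highest Masliner-normalised natural-log median intensity across replicate spots of either probe orientation.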

Sequence | gcPBM binding intensity (ln)
AAAAAAAAAAGGTGTACATGCAAAATAAATTCTTAA [TGCATGCA_site556] | 8.93 ± 0.48
AAATTATAAATACCTACACACTTATCAAAATAAATT [CACACA_site5280] | 8.82 ± 0.33
TAAACATAAATATACACACAAACATATATGTATTTT [CACACA_site1214] | 9.11 ± 0.38
AAAAAAAAAAAACACACACACACACCGACAAAATAT [CACACA_site8411] | 10.4 ± 0.25
GATGATATATATTAGCGTACATGTATATATACCATT [XGTACX_site6404] | 9.05 ± 0.36
AAAATTTCAAATAACACACACTAATATATATCTGTA [CACACA_site4904] | 9.14 ± 0.24
TATTTGTATATATGTGTGCACGTATAATCCATTAAA [GTGCAC_site9569] | 8.97 ± 0.33
TAAATGAGAAGGACTGCACACTAAAATGGAAGGAGA [CACACA_site8449] | 9.18 ± 0.47
GCATAAATCAAACACACACACATATATATATATATA [CACACA_site2422] | 10.3 ± 0.15
AATGAATATAGTACTGAATGTAATTTAAGGTTTTCC [CACACA_negctrl_site1548] | 8.79 ± 0.5
TATAATGGATGCTAGCTGCACTAATAAGCAAAAATA | 8.73 ± 0.54
TATATTAAATATTACACACATACATTTAGTGTCAAA [CACACA_site1990] | 9.02 ± 0.46
AACAAAATAAATGTATGTACATATATATATATATAT [XGTACX_site7974] | 9.74 ± 0.65
ATATATATATCATATTGTACATACTTGTATTTATAT [XGTACX_site2432] | 9.06 ± 0.35
GTGGACGAAATAGTTGTAAATTTATGTGCAAACCTC [XGTACX_negctrl_site564] | 8.92 ± 0.44
TCCTTACCTATTAAAGCATGCTCGAATATATATTTT [TGCATGCA_site53] | 8.88 ± 0.41
TTAATTATATATAAAAGTACTTATTTTTCCATATAA [XGTACX_site3033] | 8.12 ± 0.46
TAATAGGAAATTATAGGTACACATACAAATAAATAA [XGTACX_site3587] | 8.9 ± 0.52
AATAATAATATATGTAGTACACATTTCCATTATGTT [XGTACX_site3708] | 8.86 ± 0.44
AAAAAAAAAAAAAAAACACACATTTCTTTTTCATAT [CACACA_site11] | 8.91 ± 0.45
ATATTAAAAAGAAGTGTGCGCAAAACATTAACTTGA | 9.37 ± 0.42
ATTTATATATTGCCCACACACATGTGATTATTTATA [CACACA_site1714] | 9.28 ± 0.46

Sequence | gcPBM binding intensity (ln)
AATGGATGGTCCAAATGTACATATATATATATATAT [XGTACX_site4800] | 9.9 ± 0.58
TAAATAAACCTGACTTGTACATGTAAAATAAATATA [XGTACX_site1667] | 8.99 ± 0.57
AGAAAAAATAAAAATAGTACTCAAAAAATTATGAAT [XGTACX_site4908] | 8.6 ± 0.57
AATGGTACATGATACACACACGCACATATATATATT [CACACA_site3425] | 9.56 ± 0.3
ATGTAGATATATATATGTACTAATTAGTAGTTTACG [XGTACX_site6275] | 9.12 ± 0.47
ACATAAATAATAAAAACACACATATGTACAGATATA [CACACA_site5112] | 9.16 ± 0.49
AGAAAAAAAAAACACACACACACACCCTCAATATAA [CACACA_site39] | 10.1 ± 0.11
AAATAGATAAACTAAACACACAAAAAAAAAAAAAAT [CACACA_site1179] | 9.13 ± 0.55
TTATATGAAAAAATATGTACGTATAATGAGAAATAT [XGTACX_site8987] | 8.91 ± 0.38
GTTATAAATGCATATACACACATACGTACATACATA [CACACA_site7655] | 9.19 ± 0.35
TCATTAATCAGGTATGCATGCATAACTATTAAAAAT [TGCATGCA_site90] | 8.8 ± 0.4
TCTTTTTTTTTTATTTGTACTTATTTTTTTCAAAAA [XGTACX_site3403] | 8.54 ± 0.52
AAAATAACGAGTCAAACACACATATTTATATTTATA [CACACA_site7050] | 8.95 ± 0.45
TAATATAACTACATAACACACGAAAATATATGAATC [CACACA_site3628] | 9.1 ± 0.43
TTTAATATGAATTTATGTACATATATATATATATAT [XGTACX_site6337] | 9.23 ± 0.54
TATATTAAAAAAAAATGTACATATATATAATATATA [XGTACX_site1935] | 8.59 ± 0.42
ATTTTTATTTTCTTTACACACCACATAACTTTTTTT [CACACA_site7826] | 9.04 ± 0.43
ATATATATATATATATGTACATATATCTACATATAT [XGTACX_site7588] | 9.54 ± 0.46
ACTTTTTAATATTTTAGTACACAGTAATTCTTACTA [XGTACX_site1425] | 8.77 ± 0.51
TATGTAATAAATAGTACACACACACCGATATATATA [CACACA_site8389] | 9.79 ± 0.057
AAAAAAAAAAAATACACACACATATATATATATATA [CACACA_site2224] | 10.1 ± 0.3
TATAATAATATTATAGTGCATATTATTTATATATAA [GTGCAC_site9820] | 8.61 ± 0.42
